# Test results from a collection of fitness landscapes (doi:10.1126/science.1257360).
# Some of the results follow.
# B1: PhoQ; a variant is named by its letters at X, in order, P23837 (parent)
# chain: MKKLLRLFFPLSLRVRFLLATAAVVLVLSLAYGMVALIGYSVSFDKTTFRLLRGESNLFYTLAKWENNKLHVELPENIDKQSPTMTLIYDENGQLLWAQRDVPWLMKMIQPDWLKSNGFHEIEADVNDTSLLLSGDHSIQQQLQEVREDDDDAEMTHSVAVNVYPATSRMPKLTIVVVDTIPVELKSSYMVWSWFIYVLSANLLLVIPLLWVAAWWSLRPIEALAKEVRELEEHNRELLNPATTRELTSLVRNLNRLLKSERERYDKYRTTLTDLTHSLKTPLXXLQXXLRSLRSEKMSVSDAEPVMLEQISRISQQIGYYLHRASMRGGTLLSRELHPVAPLLDNLTSALNKVYQRKGVNISLDISPEISFVGEQNDFVEVMGNVLDNACKYCLEFVEISARQTDEHLYIVVEDDGPGIPLSKREVIFDRGQRVDTLRPGQGVGLAVAREITEQYEGKIVAGESMLGGARMEVIFGRQHSAPKDE
# Variants of: B1
# Assay: enrichment ratio after two sorts for PhoP signalling (ratio (wild type AVST 3.29)); higher = more functional
# Details: with PhoP (E. coli)
row,Variant,enrichment ratio
1,DTSM,≤ 0.25
2,SSRA,≤ 0.25
3,FMHK,≤ 0.25
4,KGFH,≤ 0.25
5,SRGY,≤ 0.25
6,WGCV,≤ 0.25
7,AFPQ,≤ 0.25
8,NLGR,≤ 0.25
9,LKEN,≤ 0.25
10,KACF,≤ 0.25
11,QVVV,≤ 0.25
12,WITH,≤ 0.25
13,ANQH,≤ 0.25
14,RIRD,≤ 0.25
15,IRSQ,≤ 0.25
16,FIAR,≤ 0.25
17,LTCP,≤ 0.25
18,DATI,≤ 0.25
19,HMMV,≤ 0.25
20,YCYD,≤ 0.25
21,YKLV,0.568
22,PGYR,≤ 0.25
23,WYKV,≤ 0.25
24,AEHC,≤ 0.25
25,FILH,3.33
26,LAQA,≤ 0.25

row,Variant,enrichment ratio
1,FNSV,0.755
2,WSAR,≤ 0.25
3,YPTV,≤ 0.25
4,HENP,6.36
5,VHWR,≤ 0.25
6,HNIW,≤ 0.25
7,MFWI,≤ 0.25
8,LRHS,≤ 0.25
9,PATH,≤ 0.25
10,TNIS,≤ 0.25
11,VSVI,≤ 0.25
12,ESLM,≤ 0.25
13,MIGW,≤ 0.25
14,SSMC,9.26
15,ISMI,4.13
16,YKWA,≤ 0.25
17,PPSC,≤ 0.25
18,FQWV,≤ 0.25
19,DPHN,≤ 0.25
20,KAFM,≤ 0.25
21,HHMK,≤ 0.25
22,KKDF,≤ 0.25
23,WEDF,≤ 0.25
24,MFNF,≤ 0.25
25,TSDQ,≤ 0.25
26,MYYD,≤ 0.25

row,Variant,enrichment ratio
1,NGPE,≤ 0.25
2,LEDA,≤ 0.25
3,PVKN,≤ 0.25
4,PSSK,≤ 0.25
5,VKIG,≤ 0.25
6,KLRF,≤ 0.25
7,RWNQ,≤ 0.25
8,TTFC,≤ 0.25
9,NMCN,≤ 0.25
10,DMPS,≤ 0.25
11,EMKI,≤ 0.25
12,FKYD,≤ 0.25
13,PKAN,≤ 0.25
14,ASIH,6.7
15,RRVN,≤ 0.25
16,YHAS,≤ 0.25
17,GVMV,≤ 0.25
18,EGFH,≤ 0.25
19,GCMS,≤ 0.25
20,SDVI,11
21,WDLI,≤ 0.25
22,NDHD,≤ 0.25
23,EECN,≤ 0.25
24,MNNV,≤ 0.25
25,HEQE,≤ 0.25
26,HHDA,≤ 0.25

row,Variant,enrichment ratio
1,NALM,5.51
2,PHFL,≤ 0.25
3,QILI,≤ 0.25
4,IMHI,≤ 0.25
5,RMLY,≤ 0.25
6,TCPQ,≤ 0.25
7,HRLI,≤ 0.25
8,KCVH,≤ 0.25
9,REHD,≤ 0.25
10,GALQ,8.32
11,RDGY,≤ 0.25
12,GNPE,≤ 0.25
13,GLYI,≤ 0.25
14,LRWY,≤ 0.25
15,VDDG,≤ 0.25
16,LQHF,≤ 0.25
17,QCWD,4.9
18,PYRV,≤ 0.25
19,MLHA,≤ 0.25
20,LICL,≤ 0.25
21,RSNA,≤ 0.25
22,LHHE,≤ 0.25
23,SICM,14.4
24,ADGG,≤ 0.25
25,NSEI,≤ 0.25
26,NLTC,≤ 0.25

row,Variant,enrichment ratio
1,FYYF,≤ 0.25
2,TFIQ,≤ 0.25
3,THFL,1.14
4,PFPV,≤ 0.25
5,RISH,≤ 0.25
6,YRVR,≤ 0.25
7,MIFC,≤ 0.25
8,SDEY,≤ 0.25
9,PTYR,≤ 0.25
10,PGRC,≤ 0.25
11,FLHD,≤ 0.25
12,VQLD,≤ 0.25
13,WDHP,≤ 0.25
14,PKNQ,≤ 0.25
15,DFYK,≤ 0.25
16,WHRE,≤ 0.25
17,ATST,4.28
18,VYVC,≤ 0.25
19,QSDS,20.8
20,HIFA,≤ 0.25
21,IGNL,≤ 0.25
22,DYCA,≤ 0.25
23,GEAM,7.34
24,VWVA,≤ 0.25
25,RITP,≤ 0.25
26,IIQD,≤ 0.25

row,Variant,enrichment ratio
1,NPMI,≤ 0.25
2,FMWN,1.04
3,HYNY,≤ 0.25
4,MAPF,≤ 0.25
5,TCGW,2.79
6,KIET,≤ 0.25
7,PHQE,≤ 0.25
8,MHIM,≤ 0.25
9,AGYM,≤ 0.25
10,HWRA,≤ 0.25
11,LFQM,≤ 0.25
12,ANGS,6.27
13,YCQN,≤ 0.25
14,HGIF,≤ 0.25
15,SRIY,≤ 0.25
16,SWLG,≤ 0.25
17,HLDV,≤ 0.25
18,MKME,≤ 0.25
19,WGTK,≤ 0.25
20,SMHQ,≤ 0.25
21,ERLQ,≤ 0.25
22,THHW,≤ 0.25
23,LWMM,≤ 0.25
